# According to the supplement of paper PMC8728848:
# Some of the results follow.
# Experiments:
# Assay in all cases: glycan array binding signal (z-score within array); higher = stronger binding
# Conditions in all cases: glycan notation: IUPAC condensed, linker removed
# [1] = molecular target: GlcNAc(b1-4)GlcNAc(b1-4)GlcNAc(b1-4)GlcNAc(b1-4)GlcNAc(b1-4)GlcNAc
# Summary of the method: (§1)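 Arrays were curated from the Consortium for Functional Glycomics database, 3228 in total, and kept only where the protein sequence was available. Binding is expressed as a within-array Z-score. This score was averaged across arrays of the same protein sequence at different concentrations or buffers and across linkers, and negative values can be read as non-binding.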
# [2] = molecular target: GlcNAc(b1-4)[GlcNAc(b1-6)]GalNAc
# Summary of the method: as §1
# [3] = molecular target: GlcNAc(b1-6)Gal(b1-4)GlcNAc
# Summary of the method: as §1
# GlcNAc(b1-6)GalNAc = molecular target: GlcNAc(b1-6)GalNAc
# Summary of the method: as §1
# [4] = molecular target: GlcNAc6S(b1-3)Gal(b1-4)GlcNAc
# Summary of the method: as §1
# Kdn(a2-3)Gal(b1-3)GalNAc = molecular target: Kdn(a2-3)Gal(b1-3)GalNAc
# Summary of the method: as §1
# Kdn(a2-3)Gal(b1-3)GlcNAc = molecular target: Kdn(a2-3)Gal(b1-3)GlcNAc
# Summary of the method: as §1
# Kdn(a2-3)Gal(b1-4)Glc = molecular target: Kdn(a2-3)Gal(b1-4)Glc
# Summary of the method: as §1
# Kdn(a2-3)Gal(b1-4)GlcNAc = molecular target: Kdn(a2-3)Gal(b1-4)GlcNAc
# Summary of the method: as §1
# [5] = molecular target: Kdn(a2-3)Gal(b1-4)[Fuc(a1-3)]GlcNAc
# Summary of the method: as §1
# Kdn(a2-6)Gal(b1-4)GlcNAc = molecular target: Kdn(a2-6)Gal(b1-4)GlcNAc
# Summary of the method: as §1
# [6] = molecular target: Man(a1-2)Man(a1-2)Man(a1-3)Man
# Summary of the method: as §1
# [7] = molecular target: Man(a1-2)Man(a1-2)Man(a1-6)[Man(a1-3)]Man
# Summary of the method: as §1
# Man(a1-2)Man(a1-3)Man = molecular target: Man(a1-2)Man(a1-3)Man
# Summary of the method: as §1
# [8] = molecular target: Man(a1-2)Man(a1-3)[Man(a1-2)Man(a1-6)]Man
# Summary of the method: as §1
# [9] = molecular target: Man(a1-2)Man(a1-3)[Man(a1-2)Man(a1-6)]Man(a1-6)[Man(a1-2)Man(a1-2)Man(a1-3)]Man
# Summary of the method: as §1
# [10] = molecular target: Man(a1-2)Man(a1-3)[Man(a1-2)Man(a1-6)]Man(a1-6)[Man(a1-2)Man(a1-2)Man(a1-3)]Man(b1-4)GlcNAc(b1-4)GlcNAc
# Summary of the method: as §1
# [11] = molecular target: Man(a1-2)Man(a1-3)[Man(a1-6)]Man(a1-6)[Man(a1-2)Man(a1-3)]Man(b1-4)GlcNAc(b1-4)GlcNAc
# Summary of the method: as §1
# [12] = molecular target: Man(a1-2)Man(a1-6)[Man(a1-3)]Man(a1-6)[Man(a1-2)Man(a1-2)Man(a1-3)]Man
# Summary of the method: as §1
# [13] = molecular target: Man(a1-2)Man(a1-6)[Man(a1-3)]Man(a1-6)[Man(a1-2)Man(a1-2)Man(a1-3)]Man(b1-4)GlcNAc(b1-4)GlcNAc
# Summary of the method: as §1
# Man(a1-3)[Man(a1-6)]Man = molecular target: Man(a1-3)[Man(a1-6)]Man
# Summary of the method: as §1
# [14] = molecular target: Man(a1-3)[Man(a1-6)]Man(a1-6)[Man(a1-2)Man(a1-3)]Man(b1-4)GlcNAc(b1-4)GlcNAc
# Summary of the method: as §1
# [15] = molecular target: Man(a1-3)[Man(a1-6)]Man(a1-6)[Man(a1-3)]Man
# Summary of the method: as §1
# [16] = molecular target: Man(a1-3)[Man(a1-6)]Man(a1-6)[Man(a1-3)]Man(b1-4)GlcNAc(b1-4)GlcNAc
# Summary of the method: as §1
# [17] = molecular target: Man(a1-3)[Man(a1-6)]Man(b1-4)GlcNAc(b1-4)GlcNAc
# Summary of the method: as §1
# [18] = molecular target: Man(a1-3)[Man(a1-6)]Man(b1-4)GlcNAc(b1-4)[Fuc(a1-6)]GlcNAc
# Summary of the method: as §1
# Man(a1-6)Man = molecular target: Man(a1-6)Man
# Summary of the method: as §1
# Man(b1-4)GlcNAc = molecular target: Man(b1-4)GlcNAc
# Summary of the method: as §1
# MurNAc(b1-4)GlcNAc = molecular target: MurNAc(b1-4)GlcNAc
# Summary of the method: as §1
# Neu5Ac(a2-3)Gal = molecular target: Neu5Ac(a2-3)Gal
# Summary of the method: as §1
# [19] = molecular target: Neu5Ac(a2-3)Gal(b1-3)GalNAc
# Summary of the method: as §1
# [20] = molecular target: Neu5Ac(a2-3)Gal(b1-3)GalNAc(b1-3)Gal(a1-4)Gal(b1-4)Glc
# Summary of the method: as §1
# [21] = molecular target: Neu5Ac(a2-3)Gal(b1-3)GalNAc(b1-4)[Neu5Ac(a2-3)]Gal(b1-4)Glc
# Summary of the method: as §1
# [22] = molecular target: Neu5Ac(a2-3)Gal(b1-3)GalNAc(b1-4)[Neu5Ac(a2-8)Neu5Ac(a2-3)]Gal(b1-4)Glc
# Summary of the method: as §1
# [23] = molecular target: Neu5Ac(a2-3)Gal(b1-3)GalNAc6S
# Summary of the method: as §1
# [24] = molecular target: Neu5Ac(a2-3)Gal(b1-3)GlcNAc
# Summary of the method: as §1
# [25] = molecular target: Neu5Ac(a2-3)Gal(b1-3)GlcNAc(b1-2)Man
# Summary of the method: as §1
binder,measurement,setting,value
PX9937B-bvu-524-33-524 (Bacteroides vulgatus) (protein) GTAYWKNPDQFTAFNTGLHALLREKSYNFFLLGEPRADIYGDNPIGGEASQGMERLPFNTINKENVGISNYGDMYKIINQINQMIAKTTETTILTEATQNYYLGEAYGMRAYLYFHLLRSWGDVVLYLDYTEGQNLDLSNITKGVSPATEVMEQIKKDIQASENAFGSDYSFKLGRHFWSAAATQMLKGEAYLWSGRQMNGGNSDYTIAKNAFENVKKADVGLVTSSFKDIFSFENKKNKEMIFTIHNGKDEYEMWGGYYRMRLIPAQDKMVKIYCDENGNSFVGTPDAQLNGLTQLQVRREFYFKGFRNNDTRWTTSLKAVYKKDAQGVVSYFGPITYKFQGTMLEGGSTRSFLDDFPIYRYADCLLQLAMAKVLLGEDPTEEINAVRERAYGSKYFNEHKAEIAYPNDNDPEFYTDNKWMKPDNAGALEAILKERLREFMFEGKRWYDIRLLGWDYVHQYSSAEQSRLLWPIDAGTLTNNSALKQTPGYE,glycan array binding signal (z-score),[1],-0.188
same,glycan array binding signal (z-score),[2],-0.214
same,glycan array binding signal (z-score),[3],-0.358
same,glycan array binding signal (z-score),GlcNAc(b1-6)GalNAc,-0.087
same,glycan array binding signal (z-score),[4],-0.196
same,glycan array binding signal (z-score),Kdn(a2-3)Gal(b1-3)GalNAc,-0.215
same,glycan array binding signal (z-score),Kdn(a2-3)Gal(b1-3)GlcNAc,-0.588
same,glycan array binding signal (z-score),Kdn(a2-3)Gal(b1-4)Glc,-0.28
same,glycan array binding signal (z-score),Kdn(a2-3)Gal(b1-4)GlcNAc,-0.189
same,glycan array binding signal (z-score),[5],-0.28
same,glycan array binding signal (z-score),Kdn(a2-6)Gal(b1-4)GlcNAc,-0.409
same,glycan array binding signal (z-score),[6],-0.369
same,glycan array binding signal (z-score),[7],-0.256
same,glycan array binding signal (z-score),Man(a1-2)Man(a1-3)Man,-0.301
same,glycan array binding signal (z-score),[8],-0.403
same,glycan array binding signal (z-score),[9],0.287
same,glycan array binding signal (z-score),[10],-0.308
same,glycan array binding signal (z-score),[11],0.266
same,glycan array binding signal (z-score),[12],0.281
same,glycan array binding signal (z-score),[13],-0.575
same,glycan array binding signal (z-score),Man(a1-3)[Man(a1-6)]Man,-0.449
same,glycan array binding signal (z-score),[14],-0.193
same,glycan array binding signal (z-score),[15],0.628
same,glycan array binding signal (z-score),[16],-0.366
same,glycan array binding signal (z-score),[17],-0.205
same,glycan array binding signal (z-score),[18],-0.29
same,glycan array binding signal (z-score),Man(a1-6)Man,-0.192
same,glycan array binding signal (z-score),Man(b1-4)GlcNAc,-0.197
same,glycan array binding signal (z-score),MurNAc(b1-4)GlcNAc,-0.246
same,glycan array binding signal (z-score),Neu5Ac(a2-3)Gal,-0.331
same,glycan array binding signal (z-score),[19],-0.35
same,glycan array binding signal (z-score),[20],-0.124
same,glycan array binding signal (z-score),[21],0.323
same,glycan array binding signal (z-score),[22],-0.191
same,glycan array binding signal (z-score),[23],-0.2
same,glycan array binding signal (z-score),[24],-0.319
same,glycan array binding signal (z-score),[25],0.068
